Screen size: about 350,000 compounds; about 9,900 (2.8%) were called active. Inconclusive means that the source gave no clear call. Such entries were picked first, then a sample of the others. The call rests on the fitted dose curve; in most records, active means well fitted activation curve with a large enough effect; inconclusive means small, poorly fitted or top-dose-only effect; inactive means no such curve, though single readings can be large or run the other way. Potencies of inconclusive entries are left out as doubtful fits.
Experiment: A quantitative high throughput screen for small molecules that induce DNA re-replication in MCF 10a normal breast cells. Further: nearly all actives have a fitted effect of over 50% in size. On activity, positive = re-replication: % of control where 0% means no effect.
Conditions: MCF 10A DNA re-replication, Hoechst nuclear intensity, 48 h; activity, positive = re-replication: at 46.1 µM (top of the series)
Potency means the concentration at half of the fitted maximal effect; tags describe the fitted curve by direction and shape.

SMILES	activity, positive = re-replication	Potency
CC(=O)N1CCc2cc(S(=O)(=O)NCCC(=O)NC3CCCc4ccccc43)ccc21 (centres undefined)	inactive: 22.7%	–
N#CC1=C(c2ccccc2)/C(=C/c2ccccc2)OC1=O	–	active: 6.51 µM
O=S(=O)(c1ccc(Cl)cc1)c1snnc1-c1ccccc1	–	inconclusive [activator, single point]
CSc1cccc(NC(=O)CCCOc2ccc(Cl)cc2Cl)c1	inactive: -0.977%	–
CCCS(=O)(=O)N1CCC(C(=O)NCCN(CC)c2ccccc2)CC1	inactive: -4.67%	–
Cc1cc(C(=O)N2CCCC(N3CCN(c4cccc(C(F)(F)F)c4)CC3)C2)c(C)o1 (centres undefined)	–	inconclusive [activator, single point]
Cc1ccccc1OCCC(=O)N(Cc1ccccc1)c1c(N)n(Cc2ccccc2)c(=O)[nH]c1=O	–	inconclusive [activator, partial curve, poor fit]
Fc1cccc(NC(=S)Nc2ccc(Br)cc2)c1	–	inconclusive [activator, single point]
COc1cccc(-c2nnn(CC(=O)Nc3cc(OC)c(NC(=O)c4ccco4)cc3OC)n2)c1	–	inconclusive [activator, partial curve, poor fit]
COc1ccc(/C=N/NC(=S)NCC2CCCO2)cc1 (centres undefined)	inactive: 0.644%	–
COC(=O)c1cn(NC(=O)/C=C/c2cc(OC)ccc2OC)c(=O)c2ccccc12	inactive: -30.8%	–
Cc1cc(S(=O)(=O)N2CCN(CC(=O)NC(C)(C#N)C3CC3)CC2)ccc1Br (centres undefined)	–	inconclusive [activator, single point]
Cc1ccc(C)c(C(=O)CCC(=O)Nc2ccc(F)cc2)c1	–	inconclusive [activator, single point]
Cc1ccnc(NC(=O)CCN2C(=O)c3ccccc3S2(=O)=O)n1	inactive: -2.6%	–
Cc1noc(NS(=O)(=O)c2ccc(NC(=O)c3cc(F)c(F)c(F)c3F)cc2)c1C	inactive: 1.83%	–
CCNC(=O)COc1cc(C)c(Br)c(C)c1	–	inconclusive [activator, single point]
Cc1ccc(Nc2nc(=O)c3cccnc3s2)cc1	–	active: 16.4 µM
C=CCn1c(=O)c2ccccc2n2c(SCc3nnc(-c4ccccc4Br)o3)nnc12	–	active: 23.1 µM
COC(=O)c1c(C)oc2ccc(N(C(C)=O)S(=O)(=O)c3ccccc3)cc12	inactive: 9.63%	–
Cc1csc(C(=O)O)c1-c1c(C)csc1C(=O)O	–	inconclusive [activator, partial curve, poor fit]
COc1cc(/C=N/Nc2nc(Nc3ccccc3)nc(-n3nc(C)cc3C)n2)cc(OC)c1OC	–	active: 14.6 µM
CC(=O)c1sc2nc(C)cc(C)c2c1N	–	inconclusive [activator, single point]

SMILES	activity, positive = re-replication	Potency
COC(=O)c1ccc(CNC(=O)COC(=O)c2ccccc2-c2ccccc2)cc1	inactive: 11.9%	–
O=C(Oc1ccc(O)cc1)C12CC3CC(CC(C3)C1)C2	–	inconclusive [activator, single point]
CCOC(=O)C1(CCCc2ccccc2)CCN(C(=O)c2cc(C)nn2CC)CC1	–	inconclusive [activator, partial curve, poor fit]
COc1cccc(OCCn2cccc2/C=C2/C(=N)N3OC(C)=CC3=NC2=O)c1	inactive: -2.59%	–
C=CCNC(=O)c1c(CSc2ccc(Cl)cc2)noc1C(=O)NCc1ccccc1	–	inconclusive [activator, single point]
CCC(C)n1ncn(-c2ccc(N3CCN(c4ccc(OCC5COC(Cn6cncn6)(c6ccc(Cl)cc6Cl)O5)cc4)CC3)cc2)c1=O (centres undefined)	–	inconclusive [activator, partial curve, poor fit]
COc1cccc(N2CCc3c(C)nc4ccc(Cl)cc4c32)c1	–	inconclusive [activator, single point]
COc1ccc(-c2cc(-c3nnc(COC(=O)C4CC4)o3)c3ccccc3n2)cc1OC	–	inconclusive [activator, single point]
Cc1cccc(C)c1CC(=O)N1CCOCC1	inactive: -0.725%	–
CCOc1ccc(-c2c(=O)n(OCc3nc4ccccc4[nH]3)c3ccccc3[n+]2[O-])cc1	–	inconclusive [activator, single point]
COc1ccc(C(=O)N2CCN(c3nc(C4CC4)nc4sc(C)c(C)c34)CC2)cc1	–	inconclusive [activator, partial curve, poor fit]
Cc1c(C(=O)NCc2n[nH]c(=S)n2-c2ccc(F)cc2)cccc1[N+](=O)[O-]	inactive: 9.56%	–
Cc1ccc(NC(=O)c2nn(C34CC5CC(CC(C5)C3)C4)cc2[N+](=O)[O-])cc1	–	inconclusive [activator, partial curve, poor fit]
Cc1cccc(Nc2ccccc2C(=O)O)c1C	–	inconclusive [activator, partial curve, poor fit]
COc1ccccc1N1CCN(CC(=O)Nc2ccccc2C(=O)NC(C)c2ccccc2)CC1 (centres undefined)	–	inconclusive [activator, partial curve, poor fit]
O=C1C(Cl)=C(Nc2ccc3cn[nH]c3c2)C(=O)c2ccccc21	–	active: 0.58 µM
Cc1nnc(N/N=C/c2ccccc2F)n1N	inactive: 8.14%	–
COCCCN(C(C)=O)c1nc(-c2ccc(OC)cc2)cs1	–	inconclusive [activator, single point]
O=S(=O)(NCc1csc(-c2cccs2)n1)c1cccc(C(F)(F)F)c1	–	inconclusive [activator, partial curve, poor fit]
CCOc1cc(N)c(Cl)cc1C(=O)NCC1CN(Cc2ccc(F)cc2)CCO1 (centres undefined)	–	inconclusive [activator, partial curve, poor fit]
O=C(CCS(=O)(=O)c1ccccc1)OCc1ccc([N+](=O)[O-])cc1	inactive: -0.0023%	–
Cc1ccccc1-n1ncc2c([N+](=O)[O-])cc([N+](=O)[O-])cc21	–	inconclusive [activator, partial curve, poor fit]

Source: PubChem BioAssay AID624296 (National Center for Advancing Translational Sciences (NCATS), 2012)
